The results in this text go back to publication PMC9911399, “Two distinct binding modes provide the RNA-binding protein RbFox with extraordinary sequence specificity”.

T1: RBFOX1 RRM RbFoxmut (Fox-RRM*) (Homo sapiens, UniProt Q9NWB1 109-208, R118D;E147R;N151S;E152T)
T1 sequence: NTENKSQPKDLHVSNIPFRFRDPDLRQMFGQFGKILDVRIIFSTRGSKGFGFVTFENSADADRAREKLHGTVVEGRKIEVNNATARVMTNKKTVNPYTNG

B1: CGUGAAU (DNA:RNA)
RNA: GGGAGACCGGAAUUCAGAUUGUCCCGUGAAUUUAAAUCCCGUCGUAGCCACCA
DNA 1: CAATCTGAATTCCGGTCTCCC
DNA 2: TGGTGGCTACGACGGGATT
B2: UUAUCAC (DNA:RNA)
RNA: B1 RNA with C25U, G26U, U27A, G28U, A29C, U31C
DNA 1: CAATCTGAATTCCGGTCTCCC
DNA 2: TGGTGGCTACGACGGGATT
B3: UUUUUAA (DNA:RNA)
RNA: B1 RNA with C25U, G26U, G28U, A29U, U31A
DNA 1: CAATCTGAATTCCGGTCTCCC
DNA 2: TGGTGGCTACGACGGGATT
B4: GAUUAAG (DNA:RNA)
RNA: B1 RNA with C25G, G26A, G28U, U31G
DNA 1: CAATCTGAATTCCGGTCTCCC
DNA 2: TGGTGGCTACGACGGGATT
B5: ACGGCGA (DNA:RNA)
RNA: B1 RNA with C25A, G26C, U27G, A29C, A30G, U31A
DNA 1: CAATCTGAATTCCGGTCTCCC
DNA 2: TGGTGGCTACGACGGGATT
B6: CUGUUUC (DNA:RNA)
RNA: B1 RNA with G26U, U27G, G28U, A29U, A30U, U31C
DNA 1: CAATCTGAATTCCGGTCTCCC
DNA 2: TGGTGGCTACGACGGGATT
B7: GCACUGC (DNA:RNA)
RNA: GGGAGACCGGAAUUCAGAUUGUCCGCACUGCUUAAAUCCCGUCGUAGCCACCA
DNA 1: CAATCTGAATTCCGGTCTCCC
DNA 2: TGGTGGCTACGACGGGATT
B8: AGUAUCU (DNA:RNA)
RNA: B1 RNA with C25A, G28A, A29U, A30C
DNA 1: CAATCTGAATTCCGGTCTCCC
DNA 2: TGGTGGCTACGACGGGATT
B9: UUUUCGC (DNA:RNA)
RNA: B7 RNA with G25U, C26U, A27U, C28U, U29C
DNA 1: CAATCTGAATTCCGGTCTCCC
DNA 2: TGGTGGCTACGACGGGATT

Positions count from the first letter of the chain named. Some of the results follow.

The target in this test is T1, RBFOX1 RRM RbFoxmut (Fox-RRM*). Kind of test: EMSA; HiTS-Eq, 1 nM pool, 10 min; buffer printed only for the single-RNA assays: 10 mM Tris pH 7.5, 150 mM NaCl, 3.4 mM EDTA, 0.001% NP-40, 30 C. The conditions noted are these: tags: His6 N-terminal (pET28a); label: 5' 32P. Put shortly:
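A pool of RNA with 7 randomized nucleotides, 5′-radiolabelled and with DNA-annealed flanks, was equilibrated at 1 nM for 10 min in 50 µL with purified RbFox RRM, wild type or mutant, across increasing protein concentrations. Free RNA was separated by 8% native PAGE, excised, reverse-transcribed, barcoded by PCR and sequenced. Relative association constants were obtained from read-count changes of each RNA species versus the control reaction and normalised to the cognate motif.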
For the molecule B1, the binding signal was 0.123 KA relative to UGCAUGU.

With B2, the binding signal is 0.115 KA relative to UGCAUGU.

For B3, the binding signal was 0.1 KA relative to UGCAUGU.

Turning to B4, the binding signal is 0.0936 KA relative to UGCAUGU.

In the case of B5, the binding signal is 0.1 KA relative to UGCAUGU.

B6: the binding signal is 0.189 KA relative to UGCAUGU.

Consider B7, for which the binding signal was 0.0626 KA relative to UGCAUGU.

As for B8, the binding signal was 0.142 KA relative to UGCAUGU.

Consider B9, for which the binding signal was 0.0719 KA relative to UGCAUGU.
